Assay in all cases: Primary Screen for Target Class Profiling of Small Molecule Inhibitors of Methyltransferases
For experiment [1], the target named is Glycine N-methyltransferase (Homo sapiens) (UniProt Q14749). The note with it: purified enzyme, MTase-Glo SAH luminescence; measured here: GNMT inhibition; at 40 µM; stronger effect = lower value. The essentials:
(§1)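 Each enzyme was reacted with SAM and its substrate, with compounds tested once at 40 uM; SAH formed was read by MTase-Glo luminescence.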

In experiment [2] the target is Guanidinoacetate N-methyltransferase (Homo sapiens) (UniProt Q14353). The note with it: purified enzyme, MTase-Glo SAH luminescence; measured here: GAMT inhibition; at 40 µM; stronger effect = lower value. The essentials:
as §1

For experiment [3], the target named is Histamine N-methyltransferase (Homo sapiens) (UniProt P50135). As to conditions: purified enzyme, MTase-Glo SAH luminescence; measured here: HNMT inhibition; at 40 µM; stronger effect = lower value. A digest of the protocol:
as §1

Experiment [4] addresses Nicotinamide N-methyltransferase (Homo sapiens) (UniProt P40261). As to conditions: purified enzyme, MTase-Glo SAH luminescence; measured here: NNMT inhibition; at 40 µM; stronger effect = lower value. The essentials:
as §1

The target of experiment [5] is Phenylethanolamine N-methyltransferase (Homo sapiens) (UniProt P11086). As to conditions: purified enzyme, MTase-Glo SAH luminescence; measured here: PNMT inhibition; at 40 µM; stronger effect = lower value. A digest of the protocol: as §1

Structures are written as SMILES. This is one part of the list. Further columns of the screen follow, without active or inactive calls.
% is scaled to controls: 0 for no effect and ±100 for the full control effect.

On to `CCCn1c(=O)c2ccc(C(=O)NC3CCCC3)cc2n2c(=O)n(C)nc12`, for which the activity change, negative = inhibition was -1.52% in experiment [1]; 6.78% in experiment [2]; -0.956% in experiment [3]; 0% in experiment [4]; 1.27% in experiment [5].
The like results for `N[C@H](C(=O)O)[C@H](Cc1ccccc1)C(=O)O` were, in that order, -2.83%, 3.15%, -1.2%, -9.5% and 1.92%.
Taken in the same sequence, the figures for `O=c1c2ccccc2n2c(=O)n(Cc3ccccc3Cl)nc2n1CCc1ccccc1` were -0.784%, 0.769%, 9.49%, -0.929% and -0.19%.
As to `CC(C)Cn1c(=O)c2ccc(C(=O)NC(C)C)cc2n2c(SCC(=O)Nc3ccc(F)cc3)nnc12`, the activity change, negative = inhibition is 0.52% in experiment [1]; 0% in experiment [2]; 1.01% in experiment [3]; -14.1% in experiment [4]; -1.4% in experiment [5].
Taken in the same sequence, the figures for `CN1CCCCCCN(C(=O)c2ccc3ccccc3n2)[C@H]2CCC[C@H]2C1=O` were -2.85%, -9.63%, 0.421%, -8.84% and -15.3%.
For the molecule `Cc1nn2c(c1-c1ccccc1OCc1ccccc1)N(C(=O)Cc1ccccc1)CCC2`, the activity change, negative = inhibition in experiment [1] was -7.6%; in experiment [2], -7.17%; in experiment [3] it was -5.05%; in experiment [4] it was -22.2%; in experiment [5] it was -10.7%.
The like results for `CC1(C(=O)NC2CCCCC2)Cn2c(ccc2-c2ccccc2)C(=O)N1Cc1ccccc1` (stereo not drawn) were, in that order, 2.5%, 1%, 1.51%, 2.18% and 3.7%.
With `CNC(=O)[C@H]1C[C@H](Oc2ccccc2)CN1Cc1cn(C)c2ccc(OC)cc12`, the activity change, negative = inhibition in experiment [1] is -5.45%; in experiment [2] it was -3.85%; in experiment [3], -2.72%; in experiment [4], -13.7%; in experiment [5] it was -4.35%.
The like results for `CC(C)CC(=O)N1CCCC(Cc2nc(C3CCOCC3)no2)C1` (stereo not drawn) were, in that order, 1.14%, 2.49%, 3.17%, -0.54% and 0.752%.
Taken in the same sequence, the figures for `CCOC(=O)c1cc2n(n1)CC(C)(C(=O)NC1CCC(C)CC1)N(Cc1ccc(Cl)cc1)C2=O` (stereo not drawn) were -0.253%, 4.46%, 0.389%, -2.43% and 1.42%.
The like results for `C=C[C@](C)(O)CC[C@H]1C(C)=CC(=O)[C@H]2C(C)(C)CCC[C@]12C` were, in that order, -6.07%, -6.04%, -0.729%, -18.7% and -18.3%.
For the molecule `COc1cc(CCc2ccccc2)c(C(=O)O)c2c1CC(C(C)(C)O)O2` (stereo not drawn), the activity change, negative = inhibition in experiment [1] was 0%; in experiment [2], 4.69%; in experiment [3], 8.77%; in experiment [4] it was -10.6%; in experiment [5], 1.98%.
Turning to `CCN1CCC2(CCC1=O)CN(Cc1cscn1)CCN2C` (stereo not drawn), the activity change, negative = inhibition is -2.89% in experiment [1]; -7.14% in experiment [2]; -4.66% in experiment [3]; -6.89% in experiment [4]; 3.8% in experiment [5].
Taken in the same sequence, the figures for `Cc1ccc(NC(=O)N2CCn3cccc3C2C(C)C)c(C)c1` (stereo not drawn) were 14.5%, 2.33%, 4.23%, 5.09% and 9.96%.
As for `O=C(NC1CCCCC1)N1CCc2n[nH]c(=O)n2CC1`, the activity change, negative = inhibition in experiment [1] was 0.096%; in experiment [2], -0.71%; in experiment [3], -1.05%; in experiment [4], -1.08%; in experiment [5], 1.24%.
The like results for `Cc1ccc(CSc2nnc3n(CCCOC(C)C)c(=O)c4ccccc4n23)cc1` were, in that order, -13.9%, 1.65%, 1.01%, -11.1% and -3.83%.
The like results for `CC(C)[C@@H](C)/C=C/[C@@H](C)[C@H]1CC[C@H]2C3=CC=C4C[C@@H](O)CC[C@]4(C)C3=CC[C@]12C` were, in that order, -12.6%, 8.57%, 0.455%, -12% and 3.2%.
The like results for `O=S(=O)(NCC1Cn2cccc2CN1Cc1ccccc1)c1ccccc1` (stereo not drawn) were, in that order, -5.05%, 0.002%, 0.716%, -3.58% and 3.01%.
Take `CCc1nc2c(=O)n(CC(=O)N3CCN(c4cccc(C)c4C)CC3)nc(C)c2s1`: the activity change, negative = inhibition in experiment [1] is -3.48%; in experiment [2] it was 1.25%; in experiment [3] it was -0.239%; in experiment [4] it was -6.47%; in experiment [5] it was 14.8%.
Taken in the same sequence, the figures for `CN1[C@@H](CCC(=O)NCc2ccco2)CNC(=O)[C@@H]2[C@H]1CCN2Cc1nc2ccccc2n1C` were -6.91%, 0.496%, -1.24%, -3.6% and -0.153%.
The like results for `CN(Cc1ccccc1)C(=O)[C@H]1O[C@H](CCN2CCOCC2)CC[C@@H]1O` were, in that order, -3.52%, -3.8%, 0.894%, -3.56% and -0.978%.
In the case of `COc1c/c(=C2\C=c3ccccc3=N2)[nH]/c1=C/c1[nH]c(C)cc1C`, the activity change, negative = inhibition in experiment [2] is -25%; in experiment [4], -32.8%; in experiment [5] it was -18.3%.
Regarding `O=C(NCc1ccccc1)c1ccc2c(=O)n(-c3cccc(C(F)(F)F)c3)c(=S)[nH]c2c1`, the activity change, negative = inhibition in experiment [1] is -2.36%; in experiment [2], 0.159%; in experiment [3], 6.66%; in experiment [4], -17.7%; in experiment [5], -5.63%.
As for `COc1ccc(-c2cc3n(n2)CC(C)(C(=O)NCc2ccccc2OC)N(Cc2ccccc2Cl)C3=O)cc1` (stereo not drawn), the activity change, negative = inhibition in experiment [1] was -2.26%; in experiment [2], 0%; in experiment [3], 1.13%; in experiment [4], -6.04%; in experiment [5], -0.439%.
Taken in the same sequence, the figures for `CC1(C(=O)NC2CCCCC2)Cn2c(nc3ccccc32)C(=O)N1Cc1ccc2c(c1)OCO2` (stereo not drawn) were 1.99%, 0.014%, 5.66%, -1.55% and 1.11%.
Taken in the same sequence, the figures for `Cc1nc2c(OCc3ccccc3)cccn2c1CC#N` were -13.7%, 10.5%, 1.16%, -7.18% and 3.6%.
The like results for `Cc1cc(C)cc(NC(=O)CSc2nnc3n(C)c(=O)c4ccc(C(=O)NC5CCCC5)cc4n23)c1` were, in that order, 1.39%, 0%, 4.76%, 9.87% and 6.72%.
As to `Cc1ccc(N2C(=O)c3cc(C(C)(C)C)nn3CC2(C)C(=O)NC2CCCCC2)cc1` (stereo not drawn), the activity change, negative = inhibition in experiment [1] was -0.21%; in experiment [2], 2.15%; in experiment [3], 1.83%; in experiment [4] it was 4.74%; in experiment [5], 0.562%.
Taken in the same sequence, the figures for `COc1ccccc1N1CCN(C(=O)CCc2conc2-c2cccc(F)c2)CC1` were -5.49%, -4.17%, -5.87%, -8.61% and -6.3%.
The like results for `CC1(C(=O)NC2CCCC2)Cn2c(cc3ccccc32)C(=O)N1C1CCN(Cc2ccccc2)CC1` (stereo not drawn) were, in that order, 2.2%, 0%, 1.38%, 1.77% and -5.13%.
Taken in the same sequence, the figures for `C/C(=C\CO[C@@H]1O[C@H](CO[C@H]2OC[C@](O)(CO)[C@H]2O)[C@@H](O)[C@H](O)[C@H]1O)C(C)(C)O` were 0.224%, -7.54%, 1.98%, -14.9% and -1.34%.
In the case of `CCNC(=O)N1CCCCCCNC(=O)[C@@H]2C[C@@H](c3nc(Cc4ccccc4)no3)C[C@@H]21`, the activity change, negative = inhibition was -0.562% in experiment [1]; 0.823% in experiment [2]; 0.892% in experiment [3]; -0.409% in experiment [4]; 1.61% in experiment [5].
The like results for `O=C(CCCc1nnc2n3nc(-c4ccccc4)nc3c3ccccc3n12)N1CCN(c2ccccc2F)CC1` were, in that order, -7.84%, -3.12%, -3.77%, -8.65% and -6.86%.
Taken in the same sequence, the figures for `CCOC(=O)c1cc2n(n1)CC(C)(C(=O)NCCC(C)C)N(Cc1cccc(OC)c1)C2=O` (stereo not drawn) were 0.657%, 0%, 3.07%, 2.32% and -5.31%.
The like results for `CNC(=O)C1(N2CCC[C@H]2C(=O)N2CC[C@@H](O)C2)CCCCC1` were, in that order, -6.43%, -5.68%, -4.61%, -9.4% and -1.07%.
With `CCOC(=O)C1=C(C)NC(C)=C(C(=O)OC)C1c1cccc([N+](=O)[O-])c1` (stereo not drawn), the activity change, negative = inhibition in experiment [1] was -1.29%; in experiment [2], 9.4%; in experiment [3] it was 10.1%; in experiment [4], -16.6%; in experiment [5], -4.08%.
Taken in the same sequence, the figures for `CC1(C(=O)NC2CCCCCCC2)Cn2c(cc3sccc32)C(=O)N1Cc1ccc(Cl)cc1` (stereo not drawn) were 2.12%, 0%, 6.33%, 6.22% and 2.44%.
Taken in the same sequence, the figures for `CCOC(=O)c1ccc2c(c1)[C@@H]1C=CC[C@@H]1[C@H](c1ccccc1OCc1ccccc1)N2` were -9.27%, 4.25%, -11.5%, -6.8% and -9.14%.

Values taken from PubChem BioAssay AID1745853 (National Center for Advancing Translational Sciences (NCATS), 2022).
